Measured values reported in PubChem BioAssay AID493208 (National Center for Advancing Translational Sciences (NCATS), 2011).
In all, about 44,000 compounds went through this assay and about 340 (0.77%) were called active. Inconclusive results (about 5%) are left out. Calls follow the shape of the dose curve; as a rule, active = well fitted inhibition curve with a large enough effect; inconclusive = small, poorly fitted or top-dose-only effect; inactive = flat fitted curve, though single readings scatter. The list shows a part of the results.

Test: Acumen qHTS Assay for Inhibitors of the mTORC1 Signaling Pathway in MEF (Tsc2-/-, p53-/-) Cells: Sytravon;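 also: plate controls were DMSO for no effect and rapamycin for full effect; nearly all actives have a fitted effect of over 50% in size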
Settings: phospho-rpS6 immunofluorescence/PI, 24 h; series mostly up to 38.3 µM; activity change, negative = inhibition: at the top concentration
Procedure, shortened: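 Cell-based qHTS: Tsc2-/- p53-/- MEF, 24 h cpd, 37 °C; fix/perm, anti-phospho-S6 Alexa-488 + PI; Acumen 488 nm scan; pS6/PI ratio, % positive cells; rapamycin 7.5 nM = inhibition ref; PI count = viability.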

Activity change, negative = inhibition, inactive:
CN1CCN(CCCNC(=O)c2cnn(-c3ccccc3)c2-n2cccc2)CC1 -0.669%
O=c1c2sc3ccccc3c2n(Cc2cccc(C(F)(F)F)c2)c(=O)n1Cc1ccco1 1.06%
Cc1ccc(C)c(-c2nc(Cn3c(=O)cc(-c4ccccc4)c4c(C)nn(C)c43)c(C)o2)c1 -8.49%
CC(C)(C)C(=O)CSc1nc2ccsc2c(=O)n1Cc1ccccc1F -2.23%
CCOc1ccc(NC(=O)Cn2cc(C(=O)c3ccc(CC)cc3)c(=O)c3cc(C)ccc32)cc1 6.47%
COc1cccc(-c2nc(SCc3cc(=O)c4ccc(C)c(C)c4[nH]3)n[nH]2)c1 0%
Cc1ccc(Cc2nc3ccccc3nc2SCC(=O)NCCC(C)C)cc1 -3.55%
COc1ccc(NC(=O)c2csc3c2CCCCC3)cc1 -9.72%
Cc1ccc(Cc2c(C)nc3nc(SCC(=O)NC(C)c4ccccc4)nn3c2C)cc1 (stereo unspecified) 2.15%
CCCN(C(=O)c1nn(-c2ccc(OC)cc2)c(=O)c2c1c1ccccc1n2C)c1ccc(CC)cc1 2.47%
COc1ccc(S(=O)(=O)c2nnn(-c3cc(Cl)c(OC)cc3OC)c2C)cc1 -19%
CCOCCCn1c(SCC(=O)Nc2ccc(C(C)C)cc2)nc2c(sc3ccccc32)c1=O -0.182%
O=C(CSc1nc2c([nH]c3ccccc32)c(=O)n1-c1ccc(F)cc1)NCc1ccccc1 -13.1%
Cn1c(=O)c2c(-c3ccccc3)n3c4ccccc4nc(-c4ccccc4)c3c2n(C)c1=O -1.47%
COC(=O)c1cc2occc2n1Cc1nc(-c2ccccc2F)oc1C 0.886%
COc1ccc(C(=O)NCC(c2cccnc2)N2CCc3ccccc3C2)cc1OC (stereo unspecified) 6.6%
CCn1c(=O)c2cc(C(=O)Nc3cc(F)ccc3F)sc2c2ccccc21 -11.7%
O=C(Nc1cccc(-c2nc3cc(Cl)ccc3o2)c1)c1cc([N+](=O)[O-])ccc1N1CCOCC1 1.12%
COc1ccc(CN2C(=O)c3oc4ccccc4c(=O)c3C2c2ccc(O)cc2)cc1 (stereo unspecified) -0.943%
O=C(Cn1cnc2c(oc3ccccc32)c1=O)Nc1ccccc1C(F)(F)F 5.38%
COc1ccc(OC)c(NC(=O)CN(C)S(=O)(=O)c2ccc(C(=O)N3CCOCC3)s2)c1 0%
COc1ccccc1NC(=O)Cn1c(=O)n(Cc2ccccc2)c(=O)c2sc3ccccc3c21 2.93%
Cc1ccc(-c2nnc(Nc3cccc(Cl)c3)c3ccccc23)cc1S(=O)(=O)N1CCOCC1 6.97%
COc1ccc(C)cc1NC(=O)N(Cc1ccc(C)o1)C1CCN(C(C)=O)CC1 -8.58%
Cc1cc(C)c(NC(=O)CSc2nc3ccccc3nc2N2CCCCC2)c(C)c1 -10.2%
O=C(NCc1cccc(Cl)c1)c1cc2ccc3cccnc3c2[nH]1 -4.6%
